The other results are listed elsewhere or left out.

The test system of this assay is PfHDP1 homeodomain (GST-tagged). In words: gcPBM binding intensity (ln(normalized median fluorescence intensity)); higher = stronger DNA binding. The method in brief: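 Binding intensity values are the highest Masliner-normalised natural-log median intensity among replicate spots of either probe orientation. The binding step lasted 1 h in 1× PBS with 1% milk, 0.2 mg/ml BSA, 0.5% salmon testes DNA and 0.03% Triton X-100, using GST-tagged P. falciparum DNA-binding domains expressed in E. coli on an Agilent 4 × 180k array of primer-extended double-stranded 36-bp intergenic genomic probes plus negative controls. Alexa488 anti-GST antibody and a 488 nm scan detected bound protein.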
As for “AATAAAATAAGAAGCACACAAATATTATATATAAAA [CACACA_site3980]”, the “gcPBM binding intensity (ln)” value was determined as 6.87.
The value for “TTAATATATTTAAATATATATAAAATATATAATATG [CACACA_negctrl_site880]” was 6.19; that for “TATATATAATATTATACACACATATATGCATAATAT [CACACA_site54]” was 7.56.
Take “TATTTATTTATATAAACACACATAAATATAAATATA [CACACA_site6653]”: the “gcPBM binding intensity (ln)” value was 6.39.
In the case of “TATAGCATAAATATGTGTACATATTTATATGATATT [XGTACX_site6333]”, the “gcPBM binding intensity (ln)” value amounted to 6.48.
The value for “ATATATATTTAAAAAAGTACAGAAGAAAATAACCCA [XGTACX_site642]” was 7.19; that for “TTGTGTTTTACATATACATGCAAATTTTTTTTTTTA [TGCATGCA_site303]” was 6.22; that for “TAAATCATTTCATGGCATTTACACAAAATTTTTTAA [CACACA_negctrl_site1260]” was 6.37.
As for “TTAAATTGAATTAGTTAACACACAACTTTTATTTCA [CACACA_site8921]”, the figure is 6.06.
Consider “TCTTCATACGACTAAAAAACATTAGACTGATAAAAA [CACACA_negctrl_site628]”, for which the “gcPBM binding intensity (ln)” value was determined as 6.29.
Consider “TATTACACATATTATACACACATATATTATATATAT [CACACA_site4951]”, for which the “gcPBM binding intensity (ln)” value was 7.02.
As to “TAACATATTTTTAATACACACTTAAAAAAGTACTTA [CACACA_site4875]”, the “gcPBM binding intensity (ln)” value was determined as 6.3.
Consider “TTTCTTTTTTCATTTACACACAATAATATAAGAATA [CACACA_site3164]”, for which the “gcPBM binding intensity (ln)” value turned out to be 6.71.
The value for “TACACAAATATATATATATATATATATATATATATA [XGTACX_negctrl_site305]” was 9.34.
In the case of “AAATACAAAATTGTTACACACATATTAAGTATGACA [CACACA_site4421]”, the “gcPBM binding intensity (ln)” value amounted to 6.18.
The value for “AGTTTAGAATTTAATACACACAAAAAAAAAAAATTA [CACACA_site7698]” was 6.34; that for “AACGTTCAATTTAAATGTACAAATGTATTTAAATAT [XGTACX_site315]” was 6.38; that for “ACAAATAAATATATATGTACATATATTTTTTTATTT [XGTACX_site2989]” was 6.6.
The value for “TTTTATTTATATTATACACACAAGGAAAAAAAAAAA [CACACA_site7690]” was 6.75; that for “AATACCTTTTAATAATGTACAAACAAAAATTAGAGA [XGTACX_site6850]” was 6.54.
Consider “TATATATTAAAAATAGTGCAAAATAATATATATATA [GTGCAC_site9716]”, for which the “gcPBM binding intensity (ln)” value was 10.1.
As for “ATATATATATATATATGTACATATTCATCTTATTCT [XGTACX_site1537]”, the figure is 9.33.
The value for “AAGGGGAGAAAAATAAACGAAATATATACATACATA [XGTACX_negctrl_site88]” was 6.71.
As for “TTTATGCACGCGTGCACACACATATGAAAAAAGGTA [CACACA_site3315]”, the “gcPBM binding intensity (ln)” value is 11.

For the origin of these results see the supplement of paper PMC11417369.
